{
  "source": "paper PMC12040169",
  "about": "(PLOS Biology, 2025)",
  "note": "Some of the results follow.",
  "data": [
    {"system": "T1, C. trachomatis L2/434/Bu expressing GFP (CTL2-GFP)", "T1 construct": "L2/434/Bu GFP intracellular growth in HeLa cells", "set-up": "species or system HeLa; C. trachomatis total inclusion area by high-content imaging, normalised to DMSO", "conditions": "total inclusion area; 28.5 h, 10 µM; inhibitor", "how_it_was_run": "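Post-fluorescence-read fixation, DNA staining with Hoechst and high-content imaging; GFP inclusion area and number per well, and nuclei counts, used as proxies for bacterial growth and host viability.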", "values": [
      {"smiles": "O=C(O)c1cccc(NC(=O)c2ccc(S(=O)(=O)N3CCCCC3)cc2)c1", "note": "[CBK265185]", "% of control remaining": 94.1933},
      {"smiles": "O=C(Nc1ccc(F)cc1)N[C@H]1[C@H](O)[C@@H](N2CCCCC2)[C@@H]2OC[C@H]1O2", "note": "[CBK288826]", "% of control remaining": 120.858},
      {"smiles": "O=C(COc1ccc(Cl)cc1Cl)Nc1ccc2cc[nH]c2c1", "note": "[CBK160023]", "% of control remaining": 99.5392},
      {"smiles": "O=C(NCCOc1ccccc1)N1CCN(c2ccccc2)CC1", "note": "[CBK155198]", "% of control remaining": 90.9504},
      {"smiles": "CN1CCN(C(=O)CN(C)S(=O)(=O)c2ccc3ccccc3c2)CC1", "note": "[CBK267053]", "% of control remaining": 81.6607},
      {"smiles": "O=C1CCC(=O)N1CCOc1nccnc1N1CCN(CC2CC2)CC1", "note": "[CBK084305]", "% of control remaining": 84.274},
      {"smiles": "FC(F)(F)c1ccc(Oc2ccc(-c3noc(-c4ccccn4)n3)cc2)nc1", "note": "[CBK270152]", "% of control remaining": 77.5331},
      {"smiles": "CN(C)CC1CCCN(C(=O)c2cc3cc(F)ccc3n2C)C1", "note": "(stereo not drawn) [CBK282122]", "% of control remaining": 91.6213},
      {"smiles": "COC(=O)Cn1c(CN2CCN(c3cccc(Cl)c3)CC2)nc2c1c(=O)n(C)c(=O)n2C", "note": "[CBK269598]", "% of control remaining": 84.5549},
      {"smiles": "CCc1nc2ccccc2n1CC(=O)O", "note": "[CBK111477]", "% of control remaining": 94.103},
      {"smiles": "COc1ccc(C(=O)NCCc2nc3ccccc3[nH]2)cc1", "note": "[CBK261040]", "% of control remaining": 87.7997},
      {"smiles": "Cc1cc2nnc(SC(C)c3nc(-c4ccccc4)no3)n2c(C)n1", "note": "(stereo not drawn) [CBK298306]", "% of control remaining": 86.401},
      {"smiles": "O=C(O)C1CC(=O)N(CCc2c[nH]c3ccc(Cl)cc23)C1", "note": "(stereo not drawn) [CBK287211]", "% of control remaining": 106.938},
      {"smiles": "O=C(O)C1CCCCC1C(=O)NCCc1ccccc1", "note": "(stereo not drawn) [CBK261707]", "% of control remaining": 104.018},
      {"smiles": "Cc1ccccc1C(c1cnccn1)N(C)C(=O)C1CCN(S(=O)(=O)C(C)C)CC1", "note": "(stereo not drawn) [CBK060242]", "% of control remaining": 103.13},
      {"smiles": "O=C(c1cnn(-c2cccc(Cl)c2)c1)N1CCOCC1CC(F)F", "note": "(stereo not drawn) [CBK304207]", "% of control remaining": 6.013},
      {"smiles": "COc1cc(OC)c(NS(=O)(=O)c2cc(C(=O)O)ccc2C)cc1Cl", "note": "[CBK296105]", "% of control remaining": 80.7469},
      {"smiles": "CCc1nc2ccccc2n1C1CCN(C(=O)Cc2cccnc2)CC1", "note": "[CBK306389]", "% of control remaining": 10.6016},
      {"smiles": "COc1ccc(Cl)cc1NC(=S)NNC(=O)c1cccnc1", "note": "[CBK267161]", "% of control remaining": 99.3246},
      {"smiles": "N#Cc1c(NC(=O)c2cccnc2)sc2c1CCCCC2", "note": "[CBK287584]", "% of control remaining": 93.5798},
      {"smiles": "C/C(=N\\NC(=O)CN(c1ccc(C)cc1)S(=O)(=O)c1ccccc1)c1ccc(Cl)cc1", "note": "[CBK262229]", "% of control remaining": 106.178},
      {"smiles": "O=c1[nH]c2ncc(-c3cccc(Br)c3)nc2n1CCc1cccnc1", "note": "[CBK064457]", "% of control remaining": 71.0355},
      {"smiles": "COc1cccc(CN2CCCC(NC(=O)c3cnn(C(C)C)c3)C2)c1", "note": "(stereo not drawn) [CBK307477]", "% of control remaining": 41.7693},
      {"smiles": "O=C(OCc1ccccc1F)c1cccc(-c2nnc(-c3ccccc3)o2)c1", "note": "[CBK267798]", "% of control remaining": 91.7687},
      {"smiles": "CN(CC1(C)COC1)C(=O)C1CC(=O)N(C(C)(C)C)C1", "note": "(stereo not drawn) [CBK281724]", "% of control remaining": 117.342},
      {"smiles": "Cn1cc(C(=O)N2CCc3ncc(Cl)cc3C2)ccc1=O", "note": "[CBK285130]", "% of control remaining": 90.0791},
      {"smiles": "O=C(CC1CCCCC1)Nc1ccc(Cl)nc1", "note": "[CBK091349]", "% of control remaining": 65.9535},
      {"smiles": "CCOC(=O)c1cccc(S(=O)(=O)NC(C)Cn2cncn2)c1", "note": "(stereo not drawn) [CBK305820]", "% of control remaining": 71.0805},
      {"smiles": "O=C(NCc1cccs1)c1ccc2[nH]ccc2c1", "note": "[CBK149060]", "% of control remaining": 90.8098},
      {"smiles": "COc1ccc(C2(C(=O)NCc3cccs3)CC2)cc1", "note": "[CBK149831]", "% of control remaining": 95.5695},
      {"smiles": "COCC(=O)N1CCc2sccc2C1c1ccc(NCc2ccc(C)o2)cc1", "note": "(stereo not drawn) [CBK286447]", "% of control remaining": 108.886},
      {"smiles": "CC(C)CSc1nsc(N)n1", "note": "[CBK019938]", "% of control remaining": 91.4775},
      {"smiles": "COc1ccc(OCCNC(=O)c2ccccc2-n2cccc2)cc1", "note": "[CBK149592]", "% of control remaining": 92.1718},
      {"smiles": "O=C(CSc1ccc(Cl)cc1)Nc1cc(C(=O)O)cc(C(=O)O)c1", "note": "[CBK266531]", "% of control remaining": 97.2875},
      {"smiles": "Cc1cc(=O)oc2cc(OCc3ccc(S(=O)(=O)N4CCOCC4)cc3)ccc12", "note": "[CBK267402]", "% of control remaining": 112.904},
      {"smiles": "CC(=O)N1CCC(C(=O)Nc2cnc(-c3ccc(F)c(Cl)c3)c(-c3cccnc3)n2)CC1", "note": "[CBK036719]", "% of control remaining": 56.1197},
      {"smiles": "Cc1ccc(S(=O)(=O)Nc2ccc(-c3cn4cccnc4n3)cc2)cc1[N+](=O)[O-]", "note": "[CBK268936]", "% of control remaining": 83.4947},
      {"smiles": "O=C(NCc1cccnc1)c1cc(Br)cnc1NCCOc1ccccc1", "note": "[CBK076265]", "% of control remaining": 95.7992},
      {"smiles": "O=C(NCCCN1CCCC1=O)c1cnc(-c2ccc(Cl)cc2)c(-c2ccncc2)c1", "note": "[CBK037545]", "% of control remaining": 106.772},
      {"smiles": "O=C(Cn1cccc(C(=O)NC2CCCCC2)c1=O)NC1(c2ccccc2)CCCC1", "note": "[CBK286059]", "% of control remaining": 112.184},
      {"smiles": "CCC1CCCCN1C(=O)c1cccc(C(=O)OC)c1", "note": "(stereo not drawn) [CBK083195]", "% of control remaining": 56.9464},
      {"smiles": "Cc1cccn2c(=O)c(/C=C3\\SC(=S)N(C(C)c4ccccc4)C3=O)c(NCCCn3ccnc3)nc12", "note": "(stereo not drawn) [CBK263836]", "% of control remaining": 104.578},
      {"smiles": "O=c1[nH]c2ncc(-c3cccc4cccnc34)nc2n1C1CCCCC1", "note": "[CBK064215]", "% of control remaining": 86.0343},
      {"smiles": "Cc1cccc(C)c1NC(=O)CSc1nnc(-c2cccnc2)n1Cc1ccccc1", "note": "[CBK265620]", "% of control remaining": 100.468},
      {"smiles": "CCN(C(=O)c1ccc(C)nc1)[C@H]1CCO[C@@H](c2cccc(-c3cc(F)cc(F)c3)c2)C1", "note": "[CBK285856]", "% of control remaining": 104.664},
      {"smiles": "N#Cc1cc2c(nc1SCC(O)COCc1ccccc1)CCCC2", "note": "(stereo not drawn) [CBK265967]", "% of control remaining": 71.5906},
      {"smiles": "N#C/C(=C/c1ccc(OCc2cccc(C(=O)O)c2)cc1)c1ccc([N+](=O)[O-])cc1", "note": "[CBK266626]", "% of control remaining": 93.6094},
      {"smiles": "CCCOC1CCCN(S(=O)(=O)c2cnc3ccsc3c2)C1", "note": "(stereo not drawn) [CBK306367]", "% of control remaining": 41.6524},
      {"smiles": "CCn1c2cc(C)sc2c2cnn(Cc3cccnc3)c(=O)c21", "note": "[CBK284169]", "% of control remaining": 94.4294},
      {"smiles": "Cc1noc(C)c1NC(=O)N(Cc1ccc2ccccc2c1)CC1CCNCC1", "note": "[CBK049774]", "% of control remaining": 63.3599},
      {"smiles": "CN(C)[C@H]1CC[C@@H](Cc2ccccc2)C[C@@H]1NC(=O)c1ccc(Cl)c(Cl)c1", "note": "[CBK012488]", "% of control remaining": 1.578}
    ]}
  ]
}
